Experimental findings from the supplement of paper PMC10126150 are described below.

Values marked as one replicate rest on one cluster of the flow cell; about a third of the high ones do not repeat.

The series relates to ATP. Put plainly: switch fluorescence ratio, 500 uM ATP over buffer (Cy3 cluster intensity, sum of 5 cycles each) (fold (ratio)); higher = stronger signal-on switching upon ATP binding; sequences stand for … in TCGTCGGCAGCGTCAGATGTGTATAAGAGACAGTTTTTTTTTTTTTTTTTTTTTTTTT…TC. Conditions: aptamer strand: ATP DNA aptamer (quencher-CACCTGGGGGAGTATTGCGGAGGAAGG + anchor), 100 nM annealed; ATP concentration: 500 uM; one replicate. In a few lines: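 Clusters with intensities outside 100-1000 RFU were excluded. The remaining Cy3-labelled switching-strand clusters on a modified Illumina MiSeq flow-cell had been annealed to 100 nM quencher-labelled ATP aptamer and imaged in selection buffer, then after 15 min with 500 uM ATP at 22 °C, for five cycles separated by NaOH stripping and re-annealing. The fluorescence ratio, averaged per switch-domain sequence, is each cluster's summed target-cycle Cy3 intensity over its summed buffer-cycle Cy3 intensity.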
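Further: ATP exposure 15 min at 22 °C before imaging.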

TTCTGAACCG: the switch fluorescence ratio was 1.11. Regarding CACAACAAGT, the switch fluorescence ratio was determined as 1. Consider ATTACAGCGT, for which the switch fluorescence ratio stood at 1.05. In the case of TCGTAAGTAG, the switch fluorescence ratio turned out to be 0.971.

ATCGTATCGG: the switch fluorescence ratio is 0.965.

For the sequence TGACCTTAGC, the switch fluorescence ratio was 1.11. With AAGAAACGAT, the switch fluorescence ratio stood at 0.994.

AATAATGGTA: the switch fluorescence ratio came out at 0.995.

TAGCGTTAAT: the switch fluorescence ratio stood at 1.05. Take ATCCTGCTCT: the switch fluorescence ratio stood at 1.

For TCCGACTTGC, the switch fluorescence ratio is 1.84.

As to TCACATCCCG, the switch fluorescence ratio came out at 1.05. On to AACCATGGAG, for which the switch fluorescence ratio was 1.02. Consider TATAAGGCGT, for which the switch fluorescence ratio is 0.982. As to TCCAGCGACT, the switch fluorescence ratio came to 1.13.

As to TTGTTTGGAG, the switch fluorescence ratio worked out at 1.04. Under ATTCGATGTA stands 0.974; under GCGAGGCTGT, 1.11.

Consider CGCATGGCTT, for which the switch fluorescence ratio worked out at 1.1. Regarding CTGCTACCAC, the switch fluorescence ratio is 1.39. For the sequence CGACGCCATT, the switch fluorescence ratio worked out at 2.43. For the sequence TTTTAGGATA, the switch fluorescence ratio was 1. Consider GAGCAGGAGA, for which the switch fluorescence ratio amounted to 0.997. Consider TTTTTAGCTC, for which the switch fluorescence ratio was found to be 4.07. With GACCAGGGGT, the switch fluorescence ratio turned out to be 1.19. AGGCACCGTC: the switch fluorescence ratio was found to be 1.02. As for CAACCTCCGA, the switch fluorescence ratio stood at 2.28. AGTCCTGGTG: the switch fluorescence ratio came to 1.64. CCGGGGCCGC: the switch fluorescence ratio amounted to 1.04.

Regarding GACATATGCG, the switch fluorescence ratio was found to be 1.05. As for TGCTGGTTGC, the switch fluorescence ratio was 0.959.

With TTGAGCCTCA, the switch fluorescence ratio is 0.966. The figure for TTAGGGGT is 1.08; for AACATTGACA it is 1.17; for TGTAAGTTAC it is 1.09. Take GCCTATGG: the switch fluorescence ratio came out at 1. On to CTGGCCT, for which the switch fluorescence ratio amounted to 1.05. In the case of GTGGTGTCTG, the switch fluorescence ratio was 0.988. The figure for CAGGGCCCGT is 1.02; for AAAGCGTGGG it is 1.18. As for CACTAGAATG, the switch fluorescence ratio came out at 1.04. GATAGTAAAC: the switch fluorescence ratio was 1.03.

Regarding GCTAAAAGGG, the switch fluorescence ratio stood at 0.981.

Take ATTTTCCCTT: the switch fluorescence ratio was 1.04.

In the case of GGGTAATGGA, the switch fluorescence ratio was 1.05. The figure for TCAGAGGAGA is 1.06; for TGGATTCAGT it is 0.987. Under CACTGACAGC stands 1.49; under CACTGAGACC, 1.15. On to GTTATAGATT, for which the switch fluorescence ratio is 0.983. For CCAAGTAAAT, the switch fluorescence ratio amounted to 1.04.

As for CGATCTCTTT, the switch fluorescence ratio is 0.985.

With GATCGTACGT, the switch fluorescence ratio turned out to be 0.965.

Regarding ATATGTTCTC, the switch fluorescence ratio came to 1.01.

With ATGTTGTAAT, the switch fluorescence ratio was 0.986.

As for ACAATACGAT, the switch fluorescence ratio was 1.54.

As for AGAAAATCCA, the switch fluorescence ratio came out at 0.998. Under TTTCGTTCG stands 1.03; under GGGTTCATCT, 0.996; under CGAGTTTATT, 1.02. On to CGTGGACTTC, for which the switch fluorescence ratio came out at 1.01. For the sequence TGACCGGTAG, the switch fluorescence ratio came to 1.04. For TCGTAGGAA, the switch fluorescence ratio was found to be 1.06.

For GCTCGCAGCT, the switch fluorescence ratio was 1.09.

Take CATACGTTCG: the switch fluorescence ratio was determined as 1.02.

On to TGGCTGTGAG, for which the switch fluorescence ratio worked out at 1.01.

With TTTTCTCGTT, the switch fluorescence ratio was 0.978. TGGAAT: the switch fluorescence ratio worked out at 0.976. Under CTTGTGGAGG stands 1.01; under GCTCACCAGT, 1.07. Take ATCTCCGTTT: the switch fluorescence ratio was determined as 1.14. Consider CACCAAAATG, for which the switch fluorescence ratio was 1.02. On to TGCAAAGGTA, for which the switch fluorescence ratio came out at 0.986. In the case of AATCATCTGG, the switch fluorescence ratio amounted to 1.09. Consider CAAGGAGCTC, for which the switch fluorescence ratio is 0.987. Under CAGACGTTTA stands 0.982. AAGGTGTGCT: the switch fluorescence ratio amounted to 0.998.

ACATTCGGA: the switch fluorescence ratio was determined as 0.957.
